About 550 (1.1%) of roughly 48,000 compounds were called active. Not shown: some 4% with an inconclusive outcome. No stated cut-off is given here; in the data, active means potency below about 15 µM; inconclusive means mostly about 16 µM to 33 µM; inactive means weaker than that. This is one part of the list.
What follows are compounds tested against Lysosomal acid glucosylceramidase (Homo sapiens) (UniProt P04062) (assay: Glucocerebrosidase). Settings: purified enzyme, resorufin glucoside fluorescence (screen aimed at inhibitors), 20 min; series mostly up to 77 µM.
Sequence of UniProt P04062 (P04062 whole entry, looked up): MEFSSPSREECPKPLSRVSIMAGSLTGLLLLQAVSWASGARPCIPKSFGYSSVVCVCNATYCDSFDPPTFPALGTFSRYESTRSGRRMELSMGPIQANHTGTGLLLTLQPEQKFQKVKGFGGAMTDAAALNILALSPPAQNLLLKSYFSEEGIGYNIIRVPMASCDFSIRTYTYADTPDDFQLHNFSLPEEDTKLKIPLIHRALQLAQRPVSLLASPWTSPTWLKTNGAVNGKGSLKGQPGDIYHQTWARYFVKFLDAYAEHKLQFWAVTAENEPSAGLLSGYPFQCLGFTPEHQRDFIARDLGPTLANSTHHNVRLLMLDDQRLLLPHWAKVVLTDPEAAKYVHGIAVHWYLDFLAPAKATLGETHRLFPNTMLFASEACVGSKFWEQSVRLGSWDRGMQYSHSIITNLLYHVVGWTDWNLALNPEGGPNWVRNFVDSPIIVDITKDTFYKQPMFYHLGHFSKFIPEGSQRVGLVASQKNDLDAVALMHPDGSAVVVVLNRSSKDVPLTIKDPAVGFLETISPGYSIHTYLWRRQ
Method in brief: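 Wild-type enzyme at 0.2 nM final in 50mM citric acid/KH2PO4, 10mM sodium taurocholate, 0.01% tween-20, pH 5.9, with resorufin beta-D-glucopyranoside at 30 uM final. Compounds titrated, 20 min at RT, red fluorescence read; AC50 from titration.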
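Further: the screen sought inhibitors.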
Potency means the concentration at half of the fitted maximal effect.

Potency, inactive:
Cn1c(=O)n(C/C=C/c2ccccc2)c(=O)c2c1nc1n2CCCN1c1ccc(F)cc1 > 76.9 µM
CCCCN(C(=O)Cn1nnc2ccccc21)C(C(=O)NCCOC)c1ccc(OC)cc1OC (centres undefined) > 76.9 µM
Cc1ccc2[nH]c(=O)c(C(c3nnnn3CC3CCCO3)N3CCc4ccccc4C3)cc2c1 (centres undefined) > 76.9 µM
CCOC(=O)N1CCN(C(=O)c2ccc(Cl)c(S(=O)(=O)Nc3ccccc3)c2)CC1 > 76.9 µM
CC1=CC(C)(C)N2C(=O)C3(C(C#N)=C(N)OC4=C3C(=O)CCC4)c3c(C)c(C)cc1c32 (centres undefined) > 76.9 µM
COC(=O)[C@H](CCSC)NC(=O)Nc1ccc(OC)c(Cl)c1 > 76.9 µM
COC(=O)C1(CCSC)NC(c2ccco2)C2C(=O)N(C)C(=O)C21 (centres undefined) > 76.9 µM
C/C(=N\O)C(=O)NCc1ccccn1 > 76.9 µM
COC(=O)C(Cc1ccccc1)NC(=O)CSc1nc(N)cc(=O)[nH]1 (centres undefined) > 76.9 µM
O=C(O)c1cc(-c2ccccc2)c(N2CCOCC2)s1 > 76.9 µM
COC(=O)c1ccc(CNC(=O)CSc2nnc(COc3ccccc3)n2C)o1 > 76.9 µM
O=C(NCc1cccnc1)C1CCN(S(=O)(=O)N2CCOCC2)CC1 > 76.9 µM
COc1ccccc1NC(=O)C(O)C(O)C(=O)Nc1ccccc1OC (centres undefined) > 76.9 µM
O=C(NCc1ccncc1)c1cccc(F)c1 > 76.9 µM
CCCCN(CCCC)C(=O)CN(C)S(=O)(=O)c1ccc2c(c1)n(C)c(=O)c(=O)n2C > 76.9 µM
CC(C)CNC(=O)c1cc(-c2ccco2)on1 > 76.9 µM
Cc1onc(-c2ccccc2Cl)c1C(=O)Nc1ccc(-c2cn3cccnc3n2)cc1
CCOC(=O)CC(=O)CSc1nc2ccccc2c(=O)n1-c1ccc(C(=O)N2CCOCC2)cc1 > 76.9 µM
CC1CN(C(=O)c2cc3cc(Cl)cc(Cl)c3oc2=O)CC(C)O1 (centres undefined) > 76.9 µM
COc1ccc(-c2nc3ncccn3c2Nc2ccc3c(c2)OCCO3)cc1 > 76.9 µM
CCOc1ccc(-c2[nH]ncc2Oc2cccc(OC)c2)c(O)c1 > 76.9 µM
CC(=NCC1CCCO1)c1c(O)[nH]c(=O)[nH]c1=O (centres undefined) > 76.9 µM
O=C(O)CCc1ccc(-c2ccc(F)cc2)n1CCC(=O)O > 76.9 µM
COc1ccc(C2NCCO2)cc1OC (centres undefined) > 76.9 µM
COc1ccc(Cl)cc1NC(=O)Cn1cccc1
CCSc1nnc(NC(=O)CSc2nc3c(c(=O)n2-c2ccccc2OC)SCC3)s1 > 76.9 µM
COC(=O)c1ccccc1S(=O)(=O)N(CCCO)Cc1cc2c(C)ccc(C)c2[nH]c1=O > 76.9 µM
O=C(O)C1CSC2c3ccccc3C(=O)N12 (centres undefined) > 76.9 µM
Cc1cc(C)nc(NS(=O)(=O)c2ccc(-n3cccc3)cc2)n1 > 76.9 µM
O=c1[nH]c(NCc2ccccc2)nc2c1CCC2 > 76.9 µM
O=S(=O)(c1cc(Cl)ccc1Br)N1CCCCC1 > 76.9 µM
CCOC(=O)N1CCC(NC(=O)Cn2cc3c(n2)CCC(C)C3)CC1 (centres undefined) > 76.9 µM
Cc1c(NC(=O)Nc2ccc3c(c2)OCO3)c(=O)n(-c2ccccc2)n1C > 76.9 µM
c1ccc(CCCc2nc(-c3ccccn3)no2)cc1 > 76.9 µM
Nc1ccc2ncccc2c1 > 76.9 µM
O=C(NCc1cccc(Cl)c1)c1cnccn1 > 76.9 µM
O=C(CSc1nc2c(sc3ccccc32)c(=O)n1CCO)NCC1CCCO1 (centres undefined) > 76.9 µM
Cc1ccn(C(=O)c2ccc(NC(=O)C3CCCCC3)cc2)n1 > 76.9 µM
CC(C)Cn1c(SCC(=O)c2ccc(Cl)s2)nnc1-c1ccco1 > 76.9 µM
O=C(c1ccco1)[C@@H]1[C@@H]2C(=O)N(c3ccc(Br)cc3)C(=O)[C@@H]2C2c3ccccc3C=CN21 (some centres undefined) > 76.9 µM
CCC(C)NCC(O)COCc1ccc(Cl)cc1 (centres undefined) > 76.9 µM
CC(C)(C)OC(=O)NCCc1nnc(S(=O)(=O)Cc2ccc(Cl)cc2Cl)o1 > 76.9 µM
CCCS(=O)(=O)N1CCC(C(=O)NCC2CCCO2)CC1 (centres undefined) > 76.9 µM
C1CCC2=NCCCN2CC1 > 76.9 µM
COc1ccccc1CNC(=O)C1CCN(S(=O)(=O)c2c(C)noc2C)CC1 > 76.9 µM
O=c1c2[nH]c3ccccc3c2ncn1Cc1ccccn1 > 76.9 µM
Cc1cc(C(=O)CSc2nnc(-c3ccc(Cl)cc3)n2CC2CCCO2)c(C)n1C (centres undefined) > 76.9 µM
CCn1c(-c2cc(OC)ccc2OC)csc1=Nc1c(C)n(C)n(-c2ccccc2)c1=O > 76.9 µM
Cc1ccc(-n2c(SCC(=O)OC(C)C)nnc2-c2ccco2)cc1 > 76.9 µM
CCOC(=O)C1=CSC2=NS(=O)(=O)CCN12 > 76.9 µM
O=C(CSC1CCCCC1)N1CCN(c2ccccc2)CC1 > 76.9 µM
N#Cc1nc(N2CCCC2)nc(N2CCCC2)n1 > 76.9 µM
CCOCc1nnc(NC(=O)CSCc2ccccc2)s1 > 76.9 µM
CCCc1cc(=O)[nH]c(SCC(=O)c2cc(C)n(C(C)COC)c2C)n1 (centres undefined) > 76.9 µM
Cc1cccc2cc(CN(CC3CCCO3)C(=O)c3cccnc3)c3nnnn3c12 (centres undefined) > 76.9 µM
CCOc1nc(-c2ccccc2)ccc1-c1noc(COC)n1 > 76.9 µM
O=C1Nc2c(Br)cc(Br)cc2C1(O)N1CCOCC1 (centres undefined) > 76.9 µM
COc1cccc(N2C(=O)CC(c3c[nH]c4ccccc34)C2=O)c1 (centres undefined) > 76.9 µM
CC1(C)CC(=O)C2=C(C1)NC(=O)CC2c1ccccc1F (centres undefined) > 76.9 µM

— PubChem BioAssay AID360 (National Center for Advancing Translational Sciences (NCATS), 2006)
